# Measurements reported in the RNAGym collection of RNA variant scans (doi:10.7554/elife.90254).
# The source gives no read counts; variants with many changes may rest on few reads.
# B1: LINE1-mini (parent)
# chain: GGCAGAGCUCAACACAGCGUGGCAAAGUGGCUGUGGCUAGACUGCC
# Variants of: B1
# Assay: self-cleavage, relative activity (ratio to wild type); higher = more cleavage; in vitro, sequencing; the parent is a self-cleaving ribozyme
row,Variant,self-cleavage
1,G40C G44A C45U,0.02
2,C37G U38C C42G,0.01
3,G35U A41U G44U,0.07
4,C37A C45G C46U,0.21
5,C42A G44U C45U,0.04
6,G36A A41G U43G,0
7,C37A G40C C46A,0.28
8,G35U C37A C46A,0.06
9,G40U C42A C46A,0.06
10,G40U U43A G44C,0.03
11,G40A G44A C46U,0.03
12,G36A U38G A41C,0
13,A39G G40U C45G,0.22
14,A39G A41G C42A,0.11
15,G36U C45U C46A,0.04
16,G35U G40U U43A,0.04
17,C37A C42G C45A C46A,0.02
18,G36C C37A G44U,0.1
19,A41G C42U C45U,0.13
20,A41U G44C C46A,0.02
21,C37U G40U A41U C46G,0.09
22,G40C C42U U43G,0.02
23,A41G U43C C45A,0.06
24,A41G C42G U43A,0.05

row,Variant,self-cleavage
1,G36U C37G A41U,0.04
2,A41U C42U C46U,0.28
3,G35U G44C C45U,0.05
4,G36U G44U C46A,0.02
5,U38C G40C G44U,0.06
6,G40C A41C C46U,0.06
7,U38A G40C C45U,0.12
8,A39G C42G C45U,0.03
9,G35U G40U G44A,0.14
10,G36U U38C G44U,0.01
11,G36C A39U C46G,0.02
12,G36A C37A A41C,0.02
13,G40C C42A G44C,0.08
14,A39G C42U C45U C46A,0.11
15,U38A A39U U43A,0.01
16,G36C C42U C45U,0
17,C42G G44A C46A,0.03
18,U38A C42U U43A,0.05
19,C37A U38A G44A,0.03
20,A41C G44C C45A,0.03
21,G35U C37A C45A,0.05
22,C37U U38C C46A,0.06
23,C37A U38C C46U,0.1
24,G40A A41U U43A,0.02

row,Variant,self-cleavage
1,G36U G40U G44A,0.05
2,G36U A41U U43G,0.09
3,C37U C42U C46U,0.08
4,G36U G44A C46A,0.05
5,G40A C42A U43C,0.02
6,C37U G40U A41U C45G,0.89
7,G36U G40U C45U C46U,0.06
8,G36U A39C C42A,0.03
9,G35U U43G C46A,0.01
10,G36U C42G C45G,0
11,G36C A41U G44A,0.07
12,G36U A39U G40U,0.08
13,A39U G40A G44U,0.05
14,C37A G40U C46U,0.14
15,U38C A39G C46A,0.17
16,G36C G44U C45U,0.01
17,A39U C42A U43G C45A,0.04
18,G40C C42A C45A,0.02
19,G36A C42U C45U,0.06
20,G36C C42A G44C C45U,0.03
21,G36A U38G C42U,0.01
22,G35U G36A C46A,0.08
23,C37G U38C G40C,0.14
